Laboratory results published in PubChem BioAssay AID445 (National Center for Advancing Translational Sciences (NCATS), 2006).
Among all 110,000 compounds or so, about 40 (0.04%) were called active. Inconclusive means that the source gave no clear call. Such entries were picked first, then a sample of the others. Calls follow the shape of the dose curve; as a rule, active = well fitted curve in the direction sought with a large enough effect in the signal ratio (not every such curve was filed as active); inconclusive = small, poorly fitted or top-dose-only effect, or a change in a side signal; inactive = flat fitted curve, though single readings scatter; the % refers to the signal ratio. Potencies of inconclusive entries are doubtful fits and often do not repeat.

assay: IkB Signaling; conditions: ABC-DLBCL IkBa-CBG/CBR dual luciferase ratio (green luciferase fused to IkBa over red control in OCI-Ly3 lymphoma cells), 4 h; IkBa stabilization activation: at 57.1 µM (top of the series), scaled: untreated 0%, proteasome inhibitor 100% unless noted;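 as to IkBa stabilization activation: 0% = basal untreated cells and 100% = reference inhibitor full response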
In short: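 In this assay, an IκBα–CBG68 fusion accumulates when IKK-driven degradation is blocked; native CBR normalizes for cell number. OCI-Ly3 cells were treated 4 h with compound and doxycycline, then green and red light read after Chroma-Glo addition.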
Potency is read from the fitted curve at half-maximal effect.

Compound | IkBa stabilization activation | Potency
O=C(Cn1ncn2c(cc3ccccc32)c1=O)NCCC1=CCCCC1 | inactive: 2.19% | 
CCCSc1nc(-c2ccc(OC)cc2)cc(-c2ccccc2OC)c1C#N | inactive: 5.1% | 
COc1cccc(-c2cc(N(C)Cc3ccco3)ncn2)c1 | inactive: -0.757% [at 11.4 µM, scaled: untreated 0%, proteasome inhibitor 100%] | 
Cc1cccc(C)c1NC(=O)CN(Cc1ccc(Br)cc1)S(=O)(=O)c1ccccc1 | inconclusive: 4.74% [signal inhibitor] | 
CC[N+]1(C)[C@@H]2CC[C@H]1CC(OC(=O)[C@H]1CC[C@@](C(=O)OC3C[C@H]4CC[C@@H](C3)[N+]4(C)CC)(c3ccccc3)c3ccccc31)C2 (stereo partly drawn) | inactive: 0.872% [at 25.6 µM, scaled: untreated 0%, proteasome inhibitor 100%] | 
O=c1ccsn1Cc1ccccc1 | inactive: 0.459% | 
CCOC(=O)c1ccc(NS(=O)(=O)c2ccc3c(c2)OCCO3)cc1 | inconclusive: 2.68% [signal inhibitor] | 
CC(=O)Nc1nc(C)c(-c2csc(Nc3ccc(O)cc3)n2)s1 | inconclusive: 2.68% [signal inhibitor] | 
Cc1ccccc1Cn1nnc2c(=O)[nH]c(C3CCN(C(=O)c4ccccc4Cl)CC3)nc21 | inconclusive: -0.15% [signal inhibitor] | 
Cc1ccc(-n2ncc(C(=O)NCc3ccccn3)c2C2CCN(C(=O)OC(C)(C)C)CC2)c(C)c1 | inconclusive: 2.84% [signal inhibitor] | 
c1ccc(-c2nc(N3CCN(c4ccccc4)CC3)nc(-n3ccnc3)n2)cc1 | inactive: 1.18% | 
CCC1CN(C(=O)NCc2ccccc2)c2cc(C)ccc2O1 (stereo not drawn) | inconclusive: 3.54% [signal inhibitor] | 
N#Cc1nc(COc2ccc(F)cc2)oc1N1CCN(Cc2ccccc2)CC1 | inactive: 2.19% | 
COCCCNC(=O)C(C)n1c2ccccc2c2cnn(C)c(=O)c21 (stereo not drawn) | inactive: 0.0452% | 
CCOC(=O)c1cc2c(=O)n3ccccc3nc2n(C)c1=NC(=O)c1c(-c2ccccc2Cl)noc1C | inconclusive: -2.51% [signal inhibitor] | 
O=C(Nc1ccc(F)cc1F)c1ccc2c(c1)CCN2S(=O)(=O)c1ccc(Cl)cc1 | inconclusive: 1.58% [signal inhibitor] | 
COc1ccc(-c2nc(CS(=O)(=O)CC(=O)NCCc3cc(OC)ccc3OC)c(C)o2)cc1 | inactive: -1.49% | 
CN1C(=O)CC(C(=O)Nc2ccc(F)cc2)SC1=Nc1ccc2c(c1)OCO2 (stereo not drawn) | inconclusive: 1.25% [signal inhibitor] | 
COc1cccc(CNC(=O)C2CCN(Cc3cc4ccccc4n3Cc3ccc(C)cc3)CC2)c1 | inactive: -2.3% | 
COc1ccc2oc(=O)c(C(=O)Nc3cccc(C(=O)O)c3)cc2c1 |  | inconclusive: 10 µM [signal inhibitor, partial curve]
CC(C)(c1cc(Br)c(O)c(Br)c1)c1cc(Br)c(O)c(Br)c1 |  | inconclusive: 39.8 µM [rising, single point]
COc1ccc(C2=NOC(C(=O)NC3CCCCC3)C2)cc1OC (stereo not drawn) | inactive: 0.017% | 
CCN(CC)S(=O)(=O)c1cc(C(=O)OCC(=O)c2ccc3c(c2)NC(=O)CO3)ccc1F | inconclusive: 11% [signal inhibitor] | 

Compound | IkBa stabilization activation | Potency
CCOc1ccc(-c2cc(C(=O)NCCCN3CCN(CC)CC3)c3ccccc3n2)cc1 | inactive: -0.574% | 
COc1cc(-c2cc3n(C)c(C)c(CCC(=O)NCc4ccccc4)c(=O)n3n2)cc(OC)c1OC | inconclusive: 6.24% [signal inhibitor] | 
CCn1ncc(Br)c1C(=O)Nc1ccc(Cl)cn1 | inactive: -0.938% | 
COc1ccc(OC)c(CCNC(=O)Cn2ccc3cc(S(=O)(=O)N4CCCCC4)ccc32)c1 | inconclusive: -0.907% [signal inhibitor] | 
CCN(CC)c1ccc(NC(=O)c2sc3ccccc3c2Cl)cc1 | inactive: 2.75% | 
CO[C@@H]1/C=C\O[C@]2(C)Oc3c(C)c(O)c4c(O)c(cc(O)c4c3C2=O)NC(=O)/C(C)=C\C=C/[C@H](C)[C@@H](O)[C@H](C)[C@H](O)[C@H](C)[C@H](OC(C)=O)[C@@H]1C | inactive: -1.79% [at 11.4 µM, scaled: untreated 0%, proteasome inhibitor 100%] | 
Cc1cc(-c2ccc(Cl)cc2)n2nc(N)nc2n1 | inactive: -0.146% | 
Cc1cccc(-n2ncc3c(N4CCCC4)ncnc32)c1 | inactive: -1% | 
CCOC(=O)c1cc(OC(=O)c2ccc(OC)cc2)n(-c2ccccc2)n1 | inconclusive: 8.19% [signal inhibitor] | 
COc1ccccc1-c1cc2nc(C)c(CCC(=O)NCCc3ccc(SC)cc3)c(C)n2n1 |  | inconclusive: 1.58 µM [signal inhibitor]
Cc1ccc(C)c(CNC(=O)c2ccc3c(c2)nc2n3CCC(C)C2)c1 (stereo not drawn) | inconclusive: -0.0744% [signal inhibitor] | 
CN1CCN(c2ncc3nc(-c4ccc(Cl)cc4)c(=O)n(C4CC4)c3n2)CC1 | inactive: -1.43% [at 11.4 µM, scaled: untreated 0%, proteasome inhibitor 100%] | 
COc1cc(NC(=O)c2cc3c(C)nc4ccccc4c3o2)cc(OC)c1OC | inactive: 12.8% | 
CCn1c(COc2cccc(C)c2)nnc1SCC(=O)Nc1cccc(C(=O)OC)c1 | inconclusive: 3.83% [signal inhibitor] | 
Fc1cccc(Cl)c1-c1nnc2ccc(N3CCOCC3)nn12 | inactive: -1.27% | 
O=C(OCc1cc(=O)n2nc(-c3cccs3)sc2n1)c1ccccc1 | inconclusive: 11.1% [signal inhibitor] | 
O=C(c1ccc(Cl)cc1)N1CCC(c2nc3ccccc3o2)CC1 | inconclusive: -1.46% [signal inhibitor] | 
c1ccc(-c2csc3ncn4cnnc4c23)cc1 | inactive: 0.838% | 
CCOc1ccc(NC(=O)c2c(NCc3ccc(C)o3)sc3c2CCCCC3)cc1 | inconclusive: 4.59% [signal inhibitor] | 
Cc1ccc(CSC2=Nc3ccccc3C3=NC(CC(=O)NCc4cccs4)C(=O)N23)c(C)c1 (stereo not drawn) | inconclusive: 3.97% [signal inhibitor] | 
COCCn1c(C)cc(C(=O)COC(=O)c2c(C)nn(Cc3ccccc3)c2C)c1C | inconclusive: 3.8% [signal inhibitor] | 
O=C(Nc1ccc2nc(SCCOc3ccccc3)sc2c1)c1ccccc1F | inconclusive: 1.02% [signal inhibitor] | 
Cc1ccc(-c2ccc(=O)n(CC(=O)NCCc3ccc(Cl)cc3)n2)cc1 | inconclusive: 0.111% [signal inhibitor] | 

Compound | IkBa stabilization activation | Potency
COc1ccc(NC(=O)c2c(NCc3cccs3)sc3c2CCCC3)c(OC)c1 | inconclusive: -5.36% [signal inhibitor] | 
COc1ccc(Oc2ncc3ncc(=O)n(C[C@H]4CCCO4)c3n2)cc1 | inactive: -5% [at 11.4 µM, scaled: untreated 0%, proteasome inhibitor 100%] | 
O=C(Nc1ccccc1)N1CC[C@@]2(CCCN(C(=O)c3ccco3)C2)C1 | inactive: 1.83% [at 11.4 µM, scaled: untreated 0%, proteasome inhibitor 100%] | 
COc1ccc(NC(=O)c2oc3ccccc3c2NC(=O)Cc2coc3cc(C)ccc23)cc1 | inconclusive: 4.09% [signal inhibitor] | 
N#CC1=C(SCC(=O)NC23CC4CC(CC(C4)C2)C3)NC(=O)C(C#N)C12CCCCC2 (stereo not drawn) | inconclusive: 3.26% [signal inhibitor] | 
COc1ccc(C)cc1NC(=O)CCNC(=O)Cn1ccc2ccccc2c1=O | inconclusive: -0.598% [signal inhibitor] | 
CN1C(=O)Cc2cc(S(=O)(=O)CCC(=O)Nc3ccc(Cl)c(C(F)(F)F)c3)ccc21 | inconclusive: -1.55% [signal inhibitor] | 
COCCCn1c(=N)c(C(=O)NCc2cccnc2)cc2c(=O)n3cccc(C)c3nc21 | inactive: 1.71% | 
COc1ccc(C2=C(C)C(=NCCCN3CCN(c4cc(Cl)ccc4C)CC3)NS2(=O)=O)cc1 | inconclusive: -0.666% [signal inhibitor] | 
COc1ccc(-n2ncc(C(=O)Nc3ccc4c(c3)OCO4)c2C2CCN(C(=O)OC(C)(C)C)CC2)cc1 | inconclusive: 7.69% [signal inhibitor] | 
COc1ccc2oc(-c3ccc(C)c(NC(=O)c4ccc5c(c4)OCCO5)c3)nc2c1 | inconclusive: 12.2% [signal inhibitor] | 
CN1/C(=C\C(=O)c2cccs2)Sc2ccccc21 | inconclusive: 0.84% [signal inhibitor] | 
Cn1c(-c2ccccc2)cnc1NCc1ccccc1O |  | inconclusive: 39.8 µM [signal inhibitor]
CCCNC(=O)COCc1cc(-c2ccc(F)cc2)on1 | inconclusive: -0.299% [signal inhibitor] | 
O=C(CCC1N=C2c3ccccc3N=C(SCc3ccccc3F)N2C1=O)NCc1ccccc1 (stereo not drawn) | inconclusive: -1.18% [signal inhibitor] | 
COc1cc2[nH]c(=O)n(CCC(=O)NCc3cccnc3)c(=O)c2cc1OC | inactive: -0.353% | 
O=C(NCc1ccco1)c1cccn2c(=O)c3sccc3nc12 |  | inconclusive: 31.6 µM [signal inhibitor, partial curve]
Cc1cc(NC(=O)CCS(=O)(=O)c2nc(-c3ccccc3)cc(C(F)(F)F)n2)no1 | inconclusive: -4.02% [signal inhibitor] | 
O=C(Nc1cccc2ncccc12)c1cc2ccccc2o1 | inconclusive: 6.35% [signal inhibitor] | 
c1ccc(Nc2nc(-c3ccncc3)cs2)nc1 | inconclusive: 9.76% [signal inhibitor] | 
CCOC(=O)C1CCCN(c2c(C(=O)c3ccc(OCC)cc3)cnc3ccccc23)C1 (stereo not drawn) | inconclusive: 5.38% [signal inhibitor] | 
O=C(c1cc(-c2cccc(Cl)c2)on1)N1CCCCC1 | inactive: 151% | 
